Experimental data: publication PMC12136788
The other results are listed elsewhere or left out.

T1: UNK ZnF1-6 (called full-length) (human, UniProt Q9C0B0 30-357)
T1 sequence: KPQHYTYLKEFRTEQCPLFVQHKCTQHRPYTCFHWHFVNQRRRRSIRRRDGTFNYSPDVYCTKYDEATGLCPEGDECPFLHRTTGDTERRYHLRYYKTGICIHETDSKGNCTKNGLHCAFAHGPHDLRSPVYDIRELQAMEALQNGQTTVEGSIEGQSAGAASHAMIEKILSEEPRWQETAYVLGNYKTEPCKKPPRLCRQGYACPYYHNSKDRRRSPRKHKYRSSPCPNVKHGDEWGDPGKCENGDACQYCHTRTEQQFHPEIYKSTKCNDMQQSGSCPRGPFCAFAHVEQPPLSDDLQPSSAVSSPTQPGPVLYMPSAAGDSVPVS

B1: chr11:58422334:58423261:-|CDS|ENSG00000172365|control|control|control (ssRNA)
RNA: GGGAGUUCUACAGUCCGACGAUCACACACUAGUGAGGUGAUUCUGGUUUUUAUGUCAAGCUUUAAUAUCUUUUUUGUUCUUCUAGUUAUCUUUAUCUCCUACUUGUUCAUAUUCAUCACCAUCUUGAAGAUGCAUUCAGCUAACAACAGAGGAUUGAGCAUCA
B2: chr2:27041412:27041530:+|3pUTR|ENSG00000119777|msi1_unk|FALSE|overlapping (ssRNA)
RNA: GGGAGUUCUACAGUCCGACGAUCACUUCAAAAUGCCCAGCCUGCCCCAAAUGCCUCUAAGCCCCUCCCUGUCCCCUCCCUUGUAGUCCUACUUCUUCCAACUUUCCAUUCCCCAUCAUGCUGGGGGUCUUGGUCACAAGGCUCCAACAGAGGAUUGAGCAUCA
B3: ENSG00000117906:stop:overlap|stop_codon|ENSG00000117906|stop_codon|NA|stop_codon (ssRNA)
RNA: GGGAGUUCUACAGUCCGACGAUCAGUCCUUUAGGAAGCAUCAAUGUGGAGGUUUGGGGCUCCAUCCUCAGAGCCAGUCUGCUUAGCUUCACAUUUAGCUCCAGCACUUCACGGUUGUGUAACUUUGGCUUCACUUAAAGGACACAACAGAGGAUUGAGCAUCA
B4: chr6:89794666:89794767:-|CDS|ENSG00000112159|unk|total|mutant (ssRNA)
RNA: GGGAGUUCUACAGUCCGACGAUCCCAGUCUUUCAAAGACUUUUCCCCGAGAGUUCAGAUGCUAAUCCAGUACGCUAUGGACGCCGGAGGAUGAAGCUCCGGGACCUAAUGGAAGCAGCCUUCAAGUUUCUGCAGCAGGAGCAGCAACAGAGGAUUGAGCAUCA
B5: chr1:184691659:184691688:-|3pUTR|ENSG00000116406|msi1_unk|FALSE|overlapping (ssRNA)
RNA: GGGAGUUCUACAGUCCGACGAUCCUCCAACGUUGUAAUUACAACUCUACAUUCAUUUACUUACUUGACAUACUGCCACAAAGUAGUUUUUGAGUUCAUUAAAAAUUCCAAAGGCAUUAGUUGUUUUUUUUUUUUUUAGUGUUUCAACAGAGGAUUGAGCAUCA
B6: ENSG00000114439:stop:overlap|stop_codon|ENSG00000114439|stop_codon|NA|stop_codon (ssRNA)
RNA: GGGAGUUCUACAGUCCGACGAUCUUCAUUGUAAAACAUUGUGCUUUACCUACUACCCUAGCCUUGUCUUUACCGAGGGAUGCUAGUGAGUCCAAGUGGUGGAAAAUAUAGACUGCAAACAAGUGCUUGUUGCCCCACACGGCCCAACAGAGGAUUGAGCAUCA
B7: chr7:82949737:82949846:-|CDS|ENSG00000186472|unk|total|mutant (ssRNA)
RNA: GGGAGUUCUACAGUCCGACGAUCAAGUCCUCAAUAUCUGAGUGCCACAUCUCCACCCAAAGACAAGAAACGCCCAACACCUUCCGAGAUUGGUUAUUCAUCUCACCUCCGGGCAGAUUCCACAGUACAGCUGGCUCCUUCCCCCAACAGAGGAUUGAGCAUCA
B8: chr22:19969400:19969501:+|3pUTR|ENSG00000093010|msi1|FALSE|unique (ssRNA)
RNA: GGGAGUUCUACAGUCCGACGAUCUCCCCACUGGGCCUUGCUUACAGAAGAGGCAAUGGCUCAGACCAGCUCCCGCAUCCCUGUAGUUGCCUCCCUGGCCCAUGAGUGAGGAUGCAGUGCUGGUUUCUGCCCACCUACACCUAGCAACAGAGGAUUGAGCAUCA
B9: chr3:167478683:167478996:-|three_prime_utr|ENSG00000174776|control|control|control (ssRNA)
RNA: GGGAGUUCUACAGUCCGACGAUCCUGCCUUUUAUUUUAUUUUAUAUUUAAACUUCAGGAAGUUUUCUCUUCAUGGGAUAAUUUAGUACUGCUUUUAUCUAUCAUCUGUCAAUUUCUCUGUAUUCUUAAUAAAAUAAAUAUUGACAACAGAGGAUUGAGCAUCA
B10: chr15:34852525:34852627:-|3pUTR|ENSG00000021776|unk|FALSE|unique (ssRNA)
RNA: GGGAGUUCUACAGUCCGACGAUCCUAGCAUUUCCCAAACUUAUUAGAGCAUAAAACUUUGUUUUUGUUUUUUUUUAAUAAGAUAGGUAGCUAUUUCCUUAGAACACAGUUUGGGAAACUUUUUGUUCAUUUGUUUUAAUAAGACAACAGAGGAUUGAGCAUCA
B11: chr1:9729969:9730061:-|3pUTR|ENSG00000171603|msi1_unk|total|mutant (ssRNA)
RNA: GGGAGUUCUACAGUCCGACGAUCGUUUUUAUUUUUUCCAAACCCGUGCAUGUAUAAAUAAUGGCAGGAUGGGGGGUACUGUGCCGAUGAUUAACUGACUUUUUAAUAUUUUGUAAAUAAAUCGGAUUCCUUGUGUCCUUUGUGCAACAGAGGAUUGAGCAUCA
B12: chr10:72012227:72012328:+|3pUTR|ENSG00000122863|msi1|total|mutant (ssRNA)
RNA: GGGAGUUCUACAGUCCGACGAUCCAAUGGAAGGAGCUUCAGCAGGAGGUCCUUCCCAGAAGGUUGAUUCUUGGCCUGGGUGGCCGAGGAGAUAUCCUGACCCUAAAGUCUUCCAGCCCCGGGUCAUCCUCUCCUAUACCCGGGCAACAGAGGAUUGAGCAUCA
B13: chr14:44928120:44928223:-|3pUTR|ENSG00000179454|unk|total|mutant (ssRNA)
RNA: GGGAGUUCUACAGUCCGACGAUCCCGUACAGCAGGCCUCCCAGUGCUGAUGUAAAUAUUUGAGCAGUGUUCCGUACCAUUCUCCGUGCAUAUUAAUUUUUUUAUAUAUCCUUAUAAUUUCCGUUUUUUAAGAUCUUUGCUUUUCAACAGAGGAUUGAGCAUCA
B14: chr13:51761002:51761103:+|3pUTR|ENSG00000139668|unk|FALSE|unique (ssRNA)
RNA: GGGAGUUCUACAGUCCGACGAUCACGGCAAGAUUGUAAUCCUGCUGUAUUCCUCGCCCUCUGUAUUCUAUCCCUUUAAAAACUAGAUAUUUAAACAUUUUAUCCUAAUGUGUUUCAUCAGAACACUUUGCACACUUUCUUACUCAACAGAGGAUUGAGCAUCA
B15: chr12:39618871:39619093:-|CDS|ENSG00000173208|unk|total|mutant (ssRNA)
RNA: GGGAGUUCUACAGUCCGACGAUCUAUUAUGAUGUUCUCCCAAUCUGUGGCUCACUUGUAUUCCAAUCUGACCAAACCUAUUUCCGAUGUAAUGCUGACCUCCUAUACACUCAUUCAAACUGCUACAUCCAGAGGAGCAAGCCCCAACAGAGGAUUGAGCAUCA
B16: ENSG00000107863:be:win_4251|CDS|ENSG00000107863|bound_else_gene|NA|bound_elsewhere_windowed (ssRNA)
RNA: GGGAGUUCUACAGUCCGACGAUCUAGUCGCAAGAGGAAGAAGCCGAAAGAAAAAGCACAGCCUAGCAGCUCAGAAGAUGAACUGGACAAUGUAUUUUUUAAGAAAGAAAAUGUGGAACAGUGUCACAAUGAUACUAAAGAGGACAACAGAGGAUUGAGCAUCA
B17: chr11:118396625:118396726:+|3pUTR|ENSG00000110344|msi1|FALSE|bound_elsewhere (ssRNA)
RNA: GGGAGUUCUACAGUCCGACGAUCAACUUGACAAUGCUCCCCUGGCUUGCAGGAAAUUAUACUUAUUAUAGCAUCACCAAGUUUAGAAAUCAUCACUAAUUUUCACCCUCUGUUGUCUCUUCAUAUUCUUCUUCCUUUUCCUAACAACAGAGGAUUGAGCAUCA
B18: chr1:228098371:228098472:+|3pUTR|ENSG00000143761|msi1_unk|FALSE|overlapping (ssRNA)
RNA: GGGAGUUCUACAGUCCGACGAUCUGUGUUGAAAUCCAUUUUGGUGGUUGGUUUUUAACCCAAACUCAGUGCAUUUUUUAAAAUAGUUAAGAAUCCAAGUCGAGAACACUUGAACACACAGAAGGGAGACCCCGCCUAGCAUAGCAACAGAGGAUUGAGCAUCA
B19: chr9:128810308:128810409:+|3pUTR|ENSG00000107021|unk|FALSE|unique (ssRNA)
RNA: GGGAGUUCUACAGUCCGACGAUCUACAGAUUGAGCUGUAUGAAUUCAGCGGGUCUCACUCCAGAGGGUCAGAACGUUUGCUUUAGUUUUUUCAUCUGUUUUGUUCCUUGAGUCAGUGCUGUUGAUGACGAGUUGUCUUGAAUACAACAGAGGAUUGAGCAUCA
B20: ENSG00000136451:be:win_251|CDS|ENSG00000136451|bound_else_gene|NA|bound_elsewhere_windowed (ssRNA)
RNA: GGGAGUUCUACAGUCCGACGAUCGGGACAGCUAUCACCUGAGGCGCCACGAAUCCUGCCACACAGGGAUCAAGUUGGUGUCCCGGCCAAAGAAAACCCCCACCACGGUGGUUCCCCUUAUCUCUACCAUCGCUGGGGACAGCACAACAGAGGAUUGAGCAUCA
B21: chr11:43342853:43342954:+|3pUTR|ENSG00000166181|msi1|total|mutant (ssRNA)
RNA: GGGAGUUCUACAGUCCGACGAUCCCCGUUCUGCUGAUAAAGAUCAUCAGUUUUGAAAGGUUACUGAUUUUCCUCUUCCCUCUCCGUUUUUUACCCAAUAUAUGGAGAAGAGUAAUGGUCAAUCUUAACAUUUUGUUUUAAUUGCAACAGAGGAUUGAGCAUCA
B22: chr19:38730201:38730298:+|3pUTR|ENSG00000130402|msi1_unk|FALSE|overlapping (ssRNA)
RNA: GGGAGUUCUACAGUCCGACGAUCCAGAGAAUUACUAUUUACUUUAUUAACUUACGGAUUUAUUAUAUAAAUAUAUAUUCACCUAGCAACAUAUCUCUGCCGUCUCUCCUGCUCUCAUAAUGAAGACAUAGCCGAUUCUCUGCCCAACAGAGGAUUGAGCAUCA

Target: T1, UNK ZnF1-6 (called full-length)
Experiment: nsRBNS (natural sequence RNA bind-n-seq); RBNS binding buffer (assumed for nsRBNS): 25 mM Tris pH 7.5, 150 mM KCl, 3 mM MgCl2, 0.01% Triton X-100, 500 ug/ml BSA, 20 U/ml SUPERase-In, 4 C; UNK is unkempt and MSI1 is Musashi-1; names of the RNAs are library labels; protein concentration not given here; high values mean tight binding

Binder | binding signal [enrichment R]
B1 | 12.5
B2 | 1.6
B3 | 0.657
B4 | 0.591
B5 | 8.44
B6 | 0.604
B7 | 0.726
B8 | 0.592
B9 | 2.14
B10 | 10.1
B11 | 1.54
B12 | 0.492
B13 | 7.31
B14 | 28.5
B15 | 0.656
B16 | 0.735
B17 | 4.24
B18 | 0.954
B19 | 0.809
B20 | 0.67
B21 | 0.437
B22 | 20.4
